Measured values as given in ChEMBL document CHEMBL4888484, “Replenishing the malaria drug discovery pipeline: Screening and hit evaluation of the MMV Hit Generation Library 1 (HGL1) against asexual blood stage Plasmodium falciparum ,using a nano luciferase reporter read-out” (2022).
The campaign covered roughly 150,000 compounds. About 540 (0.36%) showed an effect of 50% or more. The list shows a part of the results.

system: Plasmodium falciparum; assay: Primary screen in NF54 nanoGlo assay, in single point, at 2uM, 72h; a lower Z score goes with more inhibition; assay type: functional, Erythrocyte; conditions: timepoint 72 hour

SMILES	% Inhibition	Z score
O=C(C[C@@H]1C=CCC1)N1CCCN(S(=O)(=O)N2CCCCC2)CC1	-4%	0.74
C[C@@H]1CN(Cc2cn(Cc3ccncc3Cl)nn2)C[C@H](C)O1	-18%	3.13
Cn1nc(CCC(=O)N2CCCCC2)c2c1CCN(Cc1cccc(Cl)c1)C2	-10%	1.34
COCCCN1C(=O)CC(CC(=O)N[C@@H](C)c2ccccc2)(c2ccccc2)C1=O (stereo partly drawn)	11%	-1.59
COCCN(CCOC)C(=O)c1cc(C)on1	-5%	0.56
CC(C)CC1(CNC(=O)CC[C@H](C)N2CCN(C)CC2)CCC1	14%	-1.85
O=C(c1c2c(nc3ccccc13)CCCC2)N1CCC(c2nc(C3CCOCC3)no2)CC1	-3%	0.42
COc1ccc2nc(N3CC(C(=O)Nc4nc5ccc(S(C)(=O)=O)cc5s4)C3)sc2c1	-15%	2.41
Cc1c(CN2CCC[C@](C)(F)C2)cnn1C	-11%	1.35
O=C(O)[C@@H]1Cc2ccccc2N1S(=O)(=O)C1Cc2ccccc2C1	6%	-1.19
Cc1nc(N2CCOCC2)c2c(C(=O)Nc3cccc(C)c3C)c(C)oc2n1	-5%	0.94
Cn1nnc(CN2c3ccccc3CC2(C)C)n1	-5%	0.5
N#CCC(=O)N(CCn1ccnc1)Cc1ccccc1Br	5%	-0.87
Cc1cc(C)cc(C(=O)NC(C)(C)CC(C)(C)C)c1	1%	-0.17
CC1CCN(C(=O)CN2CCN(S(=O)(=O)c3cccc(F)c3)CC2)CC1	3%	-0.46
CC(CCc1cccn1C)NC(=O)NC1CCN(c2cnn(C)c2)C1 (stereo not drawn)	-1%	0.08
CCc1n[nH]c(NC(=O)c2cncc(C)c2)c1Br	-2%	0.32
COc1ccc(S(=O)(=O)N2CC[C@H](Oc3nc(C)cc(C)n3)C2)cc1C	-15%	2.36
CN(Cc1nccs1)c1ccc(-c2nc(-c3ccccc3F)no2)cn1	-20%	1.78
Cc1cc(C)nc(-c2cccc(C(=O)NC[C@H]3CCOC3)c2)n1	-2%	0.19
Oc1cccc(Cc2nc(-c3cccs3)no2)c1	-8%	1.29

SMILES	% Inhibition	Z score
Cc1cc(NC(=O)Cn2ccc(-c3cccc(F)c3)n2)n(C)n1	-21%	3.36
O=C(NCCc1ccccc1)c1ccc2c3c(cccc13)CC2	-4%	0.64
O=C(Cn1nnc2c1CCCC2)NCc1ccc2cc[nH]c2n1	36%	-4.05
O=C(NCc1nccn1CCCc1ccccc1)NOCc1ccc(F)cc1	-34%	3.98
Cc1ccc([C@@H]2CCCCCN2S(=O)(=O)c2ccc3c(c2)CCCC3)s1	-6%	0.84
CCCN(CC(=O)N(Cc1ccc(F)cc1)C1CCN(C(=O)C(C)C)CC1)S(=O)(=O)CCC	-11%	1.16
Cn1nc(C(=O)NC2CCCC2)ccc1=O	-3%	0.43
COC(=O)c1cc(C2CC2)nc2c1c(-c1ccc(C)cc1)nn2[C@H]1CCS(=O)(=O)C1	-3%	0.66
O=C(CCN(CCc1ccccc1)c1nc(C2CC2)nc2ccccc12)Nc1ccccc1	0%	-0.06
CN1[C@@H]2CC[C@H]1CN(C(=O)c1sccc1S(N)(=O)=O)CC2	-17%	1.71
CC1CC(C(=O)Nc2cc(F)c(F)cc2N2CCOCC2)CC(C)O1 (stereo not drawn)	-10%	0.88
CCc1nc(Cn2ccnc2-c2ccc3c(c2)CCN3C(C)C)no1	-7%	1.22
CC(=O)N1CCC(c2nc(C(C)C)cs2)CC1	-6%	0.97
CC(C)(C)n1cc(C(=O)NC2CCN(Cc3ccccc3)CC2)nn1	-5%	0.86
COCCCOC1CN(c2nc(C)cc(C#N)n2)C1	-4%	0.56
Cc1c(Cl)cccc1NC(=O)c1sccc1S(=O)(=O)N1CCc2ccccc2C1	1%	-0.1
Cc1noc(-c2cccnc2N2CC[C@H](N3CC=CC3)C2)n1	-6%	0.85
NC(=O)c1csc(CNc2nc3ccccc3s2)c1	-12%	1.7
Cc1cccc(N2CCN(C(=O)NCc3nc(C(C)C)no3)CC2)c1C	7%	-0.93
CCn1nc(C)c(C(=O)Oc2cc3cnccc3cc2OC)c1Cl	-8%	1.3
O=C([C@@H]1C[C@@H]2OCC[C@@H]2N1)N1CCN(Cc2ccc(Br)cc2)CC1	1%	-0.14

SMILES	% Inhibition	Z score
O=C(CN1CCC(O)CC1)NC1CCCCCC1	5%	-0.73
O=C(Cn1nc(-c2ccc3c(c2)OCCO3)ccc1=O)N(c1ccccc1)c1ccccc1	-25%	2.2
C=CCOC[C@@H](O)CN(CCOC)Cc1c(-c2ccccc2)noc1N(C)C1CCCCC1	-5%	0.65
CNC(=O)CN(C)Cc1c(C)cc(OC)c(C)c1C	-10%	0.92
CCOC(=O)c1ccc2nc(C(F)(F)F)nc(N3CCN(c4cccc(Cl)c4)CC3)c2c1	9%	-1.19
COc1ccc(N(Cc2ccco2)C(=O)c2ccc(Br)o2)cc1	5%	-0.61
CCN(c1ccccc1)S(=O)(=O)NC(=O)CCc1ccoc1	-4%	0.4
Cc1ccc(Cc2nc(N3CCN(S(C)(=O)=O)CC3)c3c(C)nn(-c4ccccc4)c3n2)cc1	-21%	2.49
CN(Cc1cn2ccccc2c1C#N)[C@H]1CCS(=O)(=O)C1	-8%	1.2
Cc1ccc2c(c1)CN(C(=O)CCCCc1ccccc1)C[C@H](C)O2	3%	-0.49
Cc1onc(C(=O)N2CCC[C@H](c3nc(C4CCOCC4)no3)C2)c1Cn1cc(Cl)cn1	-8%	0.98
FC(F)(F)c1cc(NC2CCOCC2)ncn1	-13%	1.43
COC(=O)C1C2CCC(C2)C1NC(=O)Nc1cc(C)n(C)n1 (stereo not drawn)	3%	-0.42
COc1ccc(CCNC(=O)c2cnc(N3CCN(c4ccccc4)CC3)nc2OC)cc1OC	2%	-0.33
N#CCCN(Cc1ccco1)CC1CCCC1	2%	-0.32
Cn1cc(S(=O)(=O)Nc2ccc3c(c2)CCC(=O)N3)cn1	-6%	1.11
C=CCNC(=O)c1ccc(NCc2ccncc2)nc1	-3%	0.39
CN(C)C(=O)C[C@H](O)c1cc2n(n1)CCN(Cc1cccc(C#N)c1)C2	7%	-1.14
Nc1c(Cl)cc(C(=O)NC2CCCC3OCCC23)cc1Cl (stereo not drawn)	0%	-0.05
COCCNC(=O)c1cn(-c2cc(-c3nc(C)no3)ccn2)cn1	-9%	1.18
CC(CO)(CO)NC(=O)c1cnn2c1OCCC2	-11%	1.64

SMILES	% Inhibition	Z score
Cc1nc2ccc(-c3ccccc3)c(O)c2n1C	-4%	0.52
CC(C)(C)OC(=O)N1CCN2C(=O)c3ccccc3OCC[C@@H]3CC[C@@H](NC(=O)C4CCOCC4)[C@@H](CNC(=O)[C@@H]2C1)O3	11%	-1.22
CCOCCN1CC(OC(=O)c2ccc3c(c2)OCCCO3)C1	-1%	0.1
COC(=O)C1CN(CC(C)(O)CN(C)C(=O)OC(C)(C)C)CCO1 (stereo not drawn)	-12%	1.3
N#Cc1cccc(CN2C[C@@H]3C[C@H](C2)c2ccc(NS(=O)(=O)c4cccc(F)c4)c(=O)n2C3)c1	5%	-0.63
COc1ccccc1CCC(=O)N1CCC(Cc2nncn2C)CC1	-2%	0.46
O=C(NCc1ccc(-c2ccc3c(c2)CCO3)cc1)c1ccc(O)nc1	-9%	0.95
CC(C)CS(=O)(=O)N1CCC(N[C@@H](C)c2ccc3c(c2)OCCCO3)CC1	4%	-0.59
CCN(Cc1ccc2nsnc2c1)[C@H]1CCS(=O)(=O)C1	-17%	2.4
O=c1c2ccccc2ncn1CCc1ncnn1Cc1ccc2c(c1)OCO2	-8%	1.49
COc1cc(OC)cc(C(C(=O)O)N2C3CCC2CC2(CC2)C3)c1 (stereo not drawn)	-5%	0.88
Cc1[nH]c2ccccc2c1CCn1nnnc1N(C)C[C@H]1CCOC1	-4%	0.59
COc1ccccc1NC(=O)C1=C(C)Nc2nnnn2[C@H]1c1cccc(F)c1	-4%	0.52
Cc1ccc(CS(=O)(=O)Cc2ccc(C(=O)N3CCCC3)o2)cc1	-13%	2.5
O=C(Nc1nncs1)[C@H]1CCCN(C(=O)c2ccc3c(c2)CCC3)C1	-9%	1.33
O=C1C2CCC(c3ccccc3)CC2C(=O)N1c1cccc(C(F)(F)F)c1 (stereo not drawn)	8%	-1.03
O=S(=O)(c1ccc(F)cc1F)N1CCCN(c2nc3cccnc3s2)CC1	-24%	2.46
COCCC(C)(C)C(=O)Nc1cccc(-n2c(C)c[nH]c2=O)c1	-5%	0.78
NC(=O)[C@H]1CCN(C(=O)c2cc(-c3ccccc3)cs2)C1	-5%	0.78
COCCOc1ccc(N)cc1Cl	-10%	1.04
O=C(CO)N1CCN(c2cnc3cc(Cl)c(Cl)cc3n2)CC1	5%	-0.62
